Out of some 74,000 compounds screened, about 1,100 (1.5%) were called active. Inconclusive results, whose numbers are uncertain, are shown with a selection of clear calls. The call rests on the fitted dose curve; in most records, active means well fitted inhibition curve with a large enough effect; inconclusive means small, poorly fitted or top-dose-only effect; inactive means no such curve, though single readings can be large or run the other way. No potency is given beside an inconclusive call; the fits are too rough.
These compounds were tested against Polyunsaturated fatty acid lipoxygenase ALOX15 (Homo sapiens) (UniProt P16050) (assay: qHTS Assay for Inhibitors of 15-hLO (15-human lipoxygenase)). Details: purified 15hLO-1, xylenol orange hydroperoxide absorbance; activity change, negative = inhibition: at 57.1 µM (top of the series) unless noted.
How it was run: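 40 nM 15hLO-1 + cpd, 15 min RT; start w/ 50 uM AA (final), 6 min RT; stop/detect w/ 200 uM XO + 300 uM Fe(II) in 50 mM H2SO4, 30 min; A573/A405. Buffer 25 mM Hepes pH 7.5, 0.01% Triton X-100. No-enzyme wells as negative control.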
Further: nearly all actives have a fitted effect of over 55% in size.
On the % scale 0 is the no-effect control and ±100 the full control effect; potency means the concentration at half of the fitted maximal effect; tags describe the fitted curve by direction and shape.

Chain of UniProt P16050 (P16050 whole entry, looked up): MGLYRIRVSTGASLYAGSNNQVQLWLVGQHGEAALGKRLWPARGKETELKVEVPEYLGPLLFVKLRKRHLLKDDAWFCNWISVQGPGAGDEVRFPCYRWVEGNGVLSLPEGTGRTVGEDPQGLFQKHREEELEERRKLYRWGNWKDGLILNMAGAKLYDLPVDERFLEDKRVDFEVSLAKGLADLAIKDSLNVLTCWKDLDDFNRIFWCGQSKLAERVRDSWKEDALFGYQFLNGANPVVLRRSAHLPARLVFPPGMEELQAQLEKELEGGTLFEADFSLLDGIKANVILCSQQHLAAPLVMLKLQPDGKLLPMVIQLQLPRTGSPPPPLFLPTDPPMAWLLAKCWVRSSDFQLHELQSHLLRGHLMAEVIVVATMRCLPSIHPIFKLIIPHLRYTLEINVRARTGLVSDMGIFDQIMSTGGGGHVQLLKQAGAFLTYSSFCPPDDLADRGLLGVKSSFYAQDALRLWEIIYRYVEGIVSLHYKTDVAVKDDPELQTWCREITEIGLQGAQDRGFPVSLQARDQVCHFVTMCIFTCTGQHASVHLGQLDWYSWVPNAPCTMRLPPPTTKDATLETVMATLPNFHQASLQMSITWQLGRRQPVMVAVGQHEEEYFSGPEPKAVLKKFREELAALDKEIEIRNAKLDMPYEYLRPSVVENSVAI

Row | SMILES | Potency | activity change, negative = inhibition
1 | CC(CCC(=O)O)C1CCC2C3CC[C@H]4CC(O)CC[C@@]4(C)C3C=C[C@]12C (stereo partly specified) | inconclusive [inhibitor, single point] | –
2 | COc1cc(OC)c2c(=O)c(-c3ccccc3)c(C)oc2c1OC | inactive | –
3 | CC(C)c1ccc2oc(-c3cc(N)ccc3O)nc2c1 | inconclusive [inhibitor, single point] | –
4 | CCOc1cc(N2CCOCC2)c(OCC)cc1NC(=O)CN1CCc2ccccc2C1 | inconclusive [inhibitor, partial curve] | –
5 | Cc1ccc(C)c(N(CC(=O)NC2CCCCC2)C(=O)CCC(=O)Nc2ccccn2)c1 | inconclusive [inhibitor, single point] | –
6 | O=S(=O)(Nc1ncnc2sc3c(c12)CCC3)c1ccc(Cl)s1 | inconclusive [inhibitor, single point] | –
7 | O=C(NCC(c1cccnc1)N1CCOCC1)c1ccc2c(c1)OCO2 (stereo unspecified) | inactive | –
8 | Cc1cc2cc(C(c3nnnn3Cc3ccco3)N3CCc4ccccc4C3)c(=O)[nH]c2cc1C (stereo unspecified) | inconclusive [inhibitor, partial curve] | –
9 | Cc1csc(NC(=O)c2cc3c(s2)-c2ccccc2OC3)n1 | inconclusive [inhibitor, partial curve] | –
10 | Cc1ccc2nc(C3CCN(C(=O)NCc4ccccc4)CC3)[nH]c2c1 | inactive | –
11 | Clc1ccc(/C=C\c2nc(Cl)c(-c3ccc(Cl)cc3)c(Cl)n2)cc1 | – | inactive: 7.08% [at 11.4 µM]
12 | Cc1ccc(C)n1NC(=O)c1ccc(Cl)cc1Cl | inconclusive [inhibitor, partial curve] | –
13 | Nc1nnc(SCc2ccc(F)cc2Cl)s1 | inconclusive [inhibitor, partial curve] | –
14 | COc1cc(CN2CCC(C(=O)NC3CCCC3)CC2)cc(OC)c1O | active: 25.1 µM | –
15 | Cc1csc(NC(=O)CSc2nnc(Cc3cccn3C)n2CCc2ccccc2)n1 | active: 12.6 µM | –
16 | CCCSC1=N/C(=C\C=C\c2ccco2)C(=O)S1 | active: 2.51 µM | –
17 | CCOC(=O)C1=C(O)C(=O)N(Cc2ccccc2)C1 | inconclusive [inhibitor, partial curve] | –
18 | O=C(Nc1nc(-c2cccs2)cs1)c1ccc(Cl)s1 | inconclusive [inhibitor, partial curve] | –
19 | O=C(Nc1nc(-c2ccc(Cl)s2)cs1)c1ccncc1 | inactive | –
20 | COC(=O)CC1C(C)(C)C(OC(C)=O)[C@@]2(O)C=C3C4CC(=O)OC(c5ccoc5)[C@]4(C)CCC3[C@@]1(C)C2=O (stereo partly specified) | inactive | –
21 | Cc1ccc(NC(=O)CSC2=C(C#N)C(c3ccc4c(c3)OCO4)C3=C(CCCC3=O)N2)c(C)c1 (stereo unspecified) | active: 3.16 µM | –
22 | Cc1cc(C)c(S(=O)(=O)Nc2cccc3nsnc23)c(C)c1 | inconclusive [inhibitor, single point] | –
23 | Cc1cc(C)c(NC(=O)NC(=O)c2cccc(F)c2)c(C)n1 | inactive | –
24 | O=C(CSCCSCC(=O)c1ccco1)c1ccco1 | inconclusive [inhibitor, single point] | –

Row | SMILES | Potency | activity change, negative = inhibition
25 | COC(=O)c1ccc(C(NC(=O)OCc2ccccc2)/C(=C/[C@@H](C)C(=O)NCc2cc(C)on2)c2cccnc2)cc1 (stereo partly specified) | inactive | –
26 | CCc1nnc2n1N=C(c1ccc(-c3ccc(Cl)cc3Cl)o1)CS2 | inconclusive [inhibitor, single point] | –
27 | COCCn1c(=O)c(-c2cc(F)cc(F)c2)nc2cnc(Oc3ccc(OC)cc3)nc21 | inactive | –
28 | Cc1nc(NCc2ccco2)c(C#N)c2c1COC(C)(C)C2 | inconclusive [inhibitor, single point] | –
29 | Cc1cc(C)c(S(=O)(=O)Nc2ccc(C(=O)O)c(O)c2)cc1C | inactive | –
30 | CC(=O)N1CCC2(CC1)C(C#N)=C(N)Oc1n[nH]c(CSc3ccc(C)cc3)c12 | inactive | –
31 | CCn1c(SCC(=O)Nc2nc(-c3ccccc3)cs2)nnc1-c1ccccc1O | inconclusive [inhibitor, partial curve] | –
32 | FC(F)(F)c1cc(-c2ccc3c(c2)OCO3)nc(NCc2ccco2)n1 | active: 20 µM | –
33 | CC[C@H](C)C(=O)O[C@@H]1C[C@H](C)C=C2C=C[C@H](C)[C@@H](CC[C@H]3C[C@@H](O)CC(=O)O3)[C@H]21 | inactive | –
34 | O=C(Nc1ccc2c(c1)OCO2)[C@@H]1[C@@H]2C(=O)N(C3CCCCC3)C(=O)[C@@H]2C2c3ccccc3C=CN21 (stereo partly specified) | inconclusive [inhibitor, single point] | –
35 | COc1ccc(NCc2cc3cc(OC)ccc3[nH]c2=O)cc1 | inconclusive [inhibitor, partial curve] | –
36 | C=C[C@@]1(C)CC(=O)[C@@]2(O)[C@@]3(C)[C@@H](O)CCC(C)(C)[C@@H]3[C@H](O)[C@H](OC(C)=O)[C@@]2(C)O1 | inactive | –
37 | Cc1noc(NS(=O)(=O)c2ccc(NC(=O)CSc3nc4c(cc3C#N)CCCC4)cc2)c1C | inconclusive [inhibitor, single point] | –
38 | CC1(C)CCC2=C(O1)c1ccccc1C(=O)C2=O | inconclusive [inhibitor, partial curve] | –
39 | CNc1nc(-c2ccc3c(c2)OCO3)nc2ccccc12 | inactive | –
40 | N[C@@H](Cc1cc(-c2ccc(Cl)cc2Cl)cc(CP(=O)(O)O)c1O)C(=O)O | active: 12.6 µM | –
41 | Oc1cccc(C(=S)N2CCN(Cc3ccccc3)CC2)c1 | active: 12.6 µM | –
42 | COCCn1nnnc1C(C(C)C)N(Cc1cccnc1)Cc1cc2cc(OC)ccc2[nH]c1=O (stereo unspecified) | inconclusive [inhibitor, partial curve] | –
43 | COc1cc(CO)cc(Br)c1OCC(=O)O | inconclusive [inhibitor, single point] | –
44 | COC(=O)c1ccccc1NC(=O)Cn1c(-c2nonc2N)nc2ccccc21 | inconclusive [inhibitor, full curve, poor fit] | –
45 | COc1c(O)ccc2c1CN1CCc3cc4c(cc3[C@@H]1C2)OCO4 | inconclusive [inhibitor, partial curve] | –
46 | O=C(NCc1ccccn1)c1cc2ccccc2oc1=O | inactive | –
47 | COc1ccc2c(C(=O)CN3CCN(CCO)CC3)c[nH]c2c1 | inconclusive [inhibitor, single point] | –
48 | COc1ccccc1NC(=O)C1C2CCCCC21 (stereo unspecified) | inconclusive [inhibitor, single point] | –

Row | SMILES | Potency | activity change, negative = inhibition
49 | CC(C)OC(=O)CSc1nnc(-c2ccc(O)cc2)n1Cc1ccccc1 | inconclusive [inhibitor, partial curve] | –
50 | CCOC(=O)c1ccc(Oc2c(C)oc3c(CN4CCN(C)CC4)c(O)ccc3c2=O)cc1 | inactive | –
51 | COc1cc2[nH]c(=O)c(C(=O)NCCCN3CCCCC3)c(O)c2cc1OC | inconclusive [inhibitor, partial curve, poor fit] | –
52 | COc1cccc(C2CC(=O)N3CN(c4cccc(Cl)c4C)CSC3=C2C#N)c1OC (stereo unspecified) | inconclusive [inhibitor, partial curve] | –
53 | COc1ccc2[nH]c3c(c2c1)CN(C)CC3 | inconclusive [inhibitor, partial curve] | –
54 | Cc1ccc(O)c(-c2cc(C(F)(F)C(F)F)[nH]n2)c1 | inconclusive [inhibitor, single point] | –
55 | Cc1nn(CC(=O)Nc2ccc3c(c2)oc2ccccc23)c(=O)c2ccccc12 | inconclusive [inhibitor, full curve] | –
56 | COc1ccc(NC(=O)N2CCCC3(CCN(C(=O)c4ccncc4)CC3)C2)cc1 | inactive | –
57 | COc1ccccc1-c1nc(N(C)C)c2ccccc2n1 | inconclusive [inhibitor, partial curve] | –
58 | C/C(CCC(=O)OC[C@@H]1O[C@H](C#Cc2ccccc2)C=C[C@@H]1Oc1ccc(C)cc1)=N/OC[C@@H](O)COCc1ccco1 | – | inactive: -5.96% [at 11.4 µM]
59 | Cn1c(=O)c2cc(S(=O)(=O)NC(C(=O)Nc3cccnc3)c3ccccc3)ccc2n(C)c1=O (stereo unspecified) | inconclusive [inhibitor, full curve] | –
60 | NCCCCCCCCCCNS(=O)(=O)c1cccc2c(Cl)cccc12 | inconclusive [inhibitor, single point] | –
61 | CCOC(=O)COn1c(=O)c(-c2cccs2)[n+]([O-])c2ccccc21 | inconclusive [inhibitor, single point] | –
62 | CC(C)c1ccc(CNc2ccc(N3CCOCC3)cc2)cc1 | active: 7.94 µM | –
63 | Cn1c(-c2ccc(F)cc2)cnc1NCc1ccccc1 | inconclusive [inhibitor, single point] | –
64 | N#Cc1ccc(N2CCN(C(=O)c3cccc(F)c3)CC2)c(F)c1 | inactive | –
65 | COc1cc(/C=C/C(=O)c2cccs2)cc(OC)c1OC | inactive | –
66 | CCOC(=O)c1c(C)nc2c3ccccc3ccn12 | active: 15.8 µM | –
67 | Cc1noc(C)c1COC(=O)CCOc1ccccc1 | inactive | –
68 | COc1cc(CN2CCN(c3cccc(C)c3C)CC2)cc(Br)c1O | inconclusive [inhibitor, single point] | –
69 | COC(=O)N1[C@H](Cc2ccccc2)C=C[C@]1(C)C(=O)NCc1ccc(N(C)C)cc1 | inconclusive [inhibitor, partial curve] | –
70 | O=c1cnc2cnc(N3CCOCC3)nc2n1C[C@H]1CCCO1 | inactive | –
71 | O=S(=O)(Nc1ccc2nc(-c3ccc(Br)o3)[nH]c2c1)c1ccccc1 | inconclusive [inhibitor, single point] | –

— PubChem BioAssay AID887 (National Center for Advancing Translational Sciences (NCATS), 2007)
